In article PMC10407929:
This is one part of the list. Measured with an extract: partners may take part in the binding.

What was measured:
Assay in all cases: pull-down
ALYREF (Homo sapiens) = ALYREF (Homo sapiens) (UniProt Q86V81); conditions: 150 mM NaCl, 50 mM Tris pH 8.0, 0.25% NP-40, 1 mM DTT; 4 C, 2 h; 100 ug nuclear extract; double strand, one strand shown
APTX (Homo sapiens) = APTX (Homo sapiens) (UniProt Q7Z2E3); conditions: 150 mM NaCl, 50 mM Tris pH 8.0, 0.25% NP-40, 1 mM DTT, 4 C, 2 h, 100 ug nuclear extract, double strand, one strand shown
Sequence of UniProt Q7Z2E3 (Q7Z2E3 whole entry): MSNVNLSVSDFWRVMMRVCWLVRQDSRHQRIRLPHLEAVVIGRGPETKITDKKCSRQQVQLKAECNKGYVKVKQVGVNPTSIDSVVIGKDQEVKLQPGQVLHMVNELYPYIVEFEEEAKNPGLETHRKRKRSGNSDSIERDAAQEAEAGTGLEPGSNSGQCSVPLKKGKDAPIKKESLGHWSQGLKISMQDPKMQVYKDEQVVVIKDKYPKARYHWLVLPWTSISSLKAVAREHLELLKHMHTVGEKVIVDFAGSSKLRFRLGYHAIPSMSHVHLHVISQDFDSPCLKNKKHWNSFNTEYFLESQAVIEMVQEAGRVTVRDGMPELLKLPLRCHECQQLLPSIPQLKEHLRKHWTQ

BANF1 (Homo sapiens) = target: T1, BANF1 (Homo sapiens) (UniProt O75531); conditions: 150 mM NaCl, 50 mM Tris pH 8.0, 0.25% NP-40, 1 mM DTT, 4 C, 2 h, 100 ug nuclear extract, double strand, one strand shown
T1 sequence: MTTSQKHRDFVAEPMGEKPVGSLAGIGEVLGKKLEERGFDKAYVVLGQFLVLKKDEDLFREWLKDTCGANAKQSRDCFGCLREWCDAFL

BCORL1 (Homo sapiens) = BCORL1 (Homo sapiens) (UniProt Q5H9F3); conditions: 150 mM NaCl, 50 mM Tris pH 8.0, 0.25% NP-40, 1 mM DTT; 4 C, 2 h; 100 ug nuclear extract; double strand, one strand shown
Sequence of UniProt Q5H9F3 (Q5H9F3 whole entry): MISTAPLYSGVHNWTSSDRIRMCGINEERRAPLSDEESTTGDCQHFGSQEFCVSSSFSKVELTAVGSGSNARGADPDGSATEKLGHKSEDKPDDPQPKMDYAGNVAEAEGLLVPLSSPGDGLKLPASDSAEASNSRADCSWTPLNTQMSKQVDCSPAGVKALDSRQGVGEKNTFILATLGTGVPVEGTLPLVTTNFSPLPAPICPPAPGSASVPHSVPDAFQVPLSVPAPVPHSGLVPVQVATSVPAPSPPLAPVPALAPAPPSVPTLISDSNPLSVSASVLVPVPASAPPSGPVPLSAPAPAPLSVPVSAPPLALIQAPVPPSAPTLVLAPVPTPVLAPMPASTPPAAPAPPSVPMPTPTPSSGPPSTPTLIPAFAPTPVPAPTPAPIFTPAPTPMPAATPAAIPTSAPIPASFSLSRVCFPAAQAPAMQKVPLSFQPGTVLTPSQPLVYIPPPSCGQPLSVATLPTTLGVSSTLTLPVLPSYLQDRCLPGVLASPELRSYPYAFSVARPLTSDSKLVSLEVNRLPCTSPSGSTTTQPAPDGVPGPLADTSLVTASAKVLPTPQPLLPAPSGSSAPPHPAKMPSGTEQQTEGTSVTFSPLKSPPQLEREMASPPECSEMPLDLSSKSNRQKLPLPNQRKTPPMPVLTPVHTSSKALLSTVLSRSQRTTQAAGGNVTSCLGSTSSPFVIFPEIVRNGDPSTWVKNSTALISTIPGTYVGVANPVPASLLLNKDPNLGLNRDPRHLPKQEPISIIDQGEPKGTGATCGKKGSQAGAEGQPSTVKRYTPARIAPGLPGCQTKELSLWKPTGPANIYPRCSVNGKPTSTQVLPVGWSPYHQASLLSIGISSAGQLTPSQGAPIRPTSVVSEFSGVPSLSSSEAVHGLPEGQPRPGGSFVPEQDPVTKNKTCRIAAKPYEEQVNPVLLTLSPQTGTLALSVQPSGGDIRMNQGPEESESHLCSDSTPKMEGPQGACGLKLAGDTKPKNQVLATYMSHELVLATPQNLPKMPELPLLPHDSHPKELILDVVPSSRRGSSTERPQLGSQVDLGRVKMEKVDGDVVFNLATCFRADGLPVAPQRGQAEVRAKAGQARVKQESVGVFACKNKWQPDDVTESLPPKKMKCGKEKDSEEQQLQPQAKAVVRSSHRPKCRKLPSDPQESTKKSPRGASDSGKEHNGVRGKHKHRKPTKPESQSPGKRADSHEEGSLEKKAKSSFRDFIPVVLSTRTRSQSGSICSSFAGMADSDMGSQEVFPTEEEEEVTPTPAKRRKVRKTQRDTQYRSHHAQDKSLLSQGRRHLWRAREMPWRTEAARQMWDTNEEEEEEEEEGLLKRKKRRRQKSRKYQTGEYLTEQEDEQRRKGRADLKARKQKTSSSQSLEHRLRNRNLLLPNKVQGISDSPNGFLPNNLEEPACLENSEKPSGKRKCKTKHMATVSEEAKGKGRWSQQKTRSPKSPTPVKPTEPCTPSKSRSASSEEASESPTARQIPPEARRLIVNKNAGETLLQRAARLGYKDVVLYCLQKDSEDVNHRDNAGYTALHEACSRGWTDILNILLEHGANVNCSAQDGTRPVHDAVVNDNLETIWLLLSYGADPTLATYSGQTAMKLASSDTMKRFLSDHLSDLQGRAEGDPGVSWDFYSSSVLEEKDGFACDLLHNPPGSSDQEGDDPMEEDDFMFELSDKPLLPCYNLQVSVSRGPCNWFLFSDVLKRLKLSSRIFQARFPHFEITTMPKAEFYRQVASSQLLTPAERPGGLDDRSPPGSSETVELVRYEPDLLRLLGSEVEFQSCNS

CETN2 (Homo sapiens) = target: T2, CETN2 (Homo sapiens) (UniProt P41208); conditions: 150 mM NaCl, 50 mM Tris pH 8.0, 0.25% NP-40, 1 mM DTT; 4 C, 2 h; 100 ug nuclear extract; double strand, one strand shown
T2 sequence: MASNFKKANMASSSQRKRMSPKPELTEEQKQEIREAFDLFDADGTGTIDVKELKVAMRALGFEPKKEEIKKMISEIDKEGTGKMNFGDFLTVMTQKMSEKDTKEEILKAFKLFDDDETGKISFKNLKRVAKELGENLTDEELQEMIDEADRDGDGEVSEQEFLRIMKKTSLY

CXXC5 (Homo sapiens) = target: T3, CXXC5 (Homo sapiens) (UniProt Q7LFL8); conditions: 150 mM NaCl, 50 mM Tris pH 8.0, 0.25% NP-40, 1 mM DTT; 4 C, 2 h; 100 ug nuclear extract; double strand, one strand shown
T3 sequence: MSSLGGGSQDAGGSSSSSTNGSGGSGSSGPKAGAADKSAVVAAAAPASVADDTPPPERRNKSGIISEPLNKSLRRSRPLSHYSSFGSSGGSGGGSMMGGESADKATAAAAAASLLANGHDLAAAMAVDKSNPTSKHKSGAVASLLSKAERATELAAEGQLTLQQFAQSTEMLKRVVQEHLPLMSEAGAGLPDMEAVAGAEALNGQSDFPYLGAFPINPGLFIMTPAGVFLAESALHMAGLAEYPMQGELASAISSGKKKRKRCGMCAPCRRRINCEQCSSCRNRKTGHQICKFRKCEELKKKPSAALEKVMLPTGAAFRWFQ

DDB1 (Homo sapiens) = DDB1 (Homo sapiens) (UniProt Q16531); conditions: 150 mM NaCl, 50 mM Tris pH 8.0, 0.25% NP-40, 1 mM DTT, 4 C, 2 h, 100 ug nuclear extract, double strand, one strand shown
DDB2 (Homo sapiens) = target: T4, DDB2 (Homo sapiens) (UniProt Q92466); conditions: 150 mM NaCl, 50 mM Tris pH 8.0, 0.25% NP-40, 1 mM DTT, 4 C, 2 h, 100 ug nuclear extract, double strand, one strand shown
T4 sequence: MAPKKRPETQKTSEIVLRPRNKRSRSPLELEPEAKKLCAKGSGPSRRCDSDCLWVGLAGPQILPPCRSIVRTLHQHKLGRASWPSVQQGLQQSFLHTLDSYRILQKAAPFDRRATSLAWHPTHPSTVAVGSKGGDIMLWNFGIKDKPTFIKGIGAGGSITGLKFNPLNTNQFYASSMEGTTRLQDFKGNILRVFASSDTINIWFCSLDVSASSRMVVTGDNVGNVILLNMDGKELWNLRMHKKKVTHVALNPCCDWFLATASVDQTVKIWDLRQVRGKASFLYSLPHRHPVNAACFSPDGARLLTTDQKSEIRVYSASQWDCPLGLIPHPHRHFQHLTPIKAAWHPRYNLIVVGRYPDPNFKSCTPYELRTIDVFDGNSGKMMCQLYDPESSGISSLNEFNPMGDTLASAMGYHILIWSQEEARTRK

FBXL12 (Homo sapiens) = target: T5, FBXL12 (Homo sapiens) (UniProt Q9NXK8); conditions: 150 mM NaCl, 50 mM Tris pH 8.0, 0.25% NP-40, 1 mM DTT; 4 C, 2 h; 100 ug nuclear extract; double strand, one strand shown
T5 sequence: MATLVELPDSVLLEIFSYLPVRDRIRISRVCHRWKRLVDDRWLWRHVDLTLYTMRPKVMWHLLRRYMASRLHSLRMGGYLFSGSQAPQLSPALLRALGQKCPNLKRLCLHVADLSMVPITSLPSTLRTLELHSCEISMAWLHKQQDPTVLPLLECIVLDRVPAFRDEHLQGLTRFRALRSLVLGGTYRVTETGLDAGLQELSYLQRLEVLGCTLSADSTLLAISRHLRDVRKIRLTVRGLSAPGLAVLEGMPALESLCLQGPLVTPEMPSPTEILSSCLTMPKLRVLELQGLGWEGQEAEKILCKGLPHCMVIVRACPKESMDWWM

HLTF (Homo sapiens) = target: T6, HLTF (Homo sapiens) (UniProt Q14527); conditions: 150 mM NaCl, 50 mM Tris pH 8.0, 0.25% NP-40, 1 mM DTT; 4 C, 2 h; 100 ug nuclear extract; double strand, one strand shown
T6 sequence: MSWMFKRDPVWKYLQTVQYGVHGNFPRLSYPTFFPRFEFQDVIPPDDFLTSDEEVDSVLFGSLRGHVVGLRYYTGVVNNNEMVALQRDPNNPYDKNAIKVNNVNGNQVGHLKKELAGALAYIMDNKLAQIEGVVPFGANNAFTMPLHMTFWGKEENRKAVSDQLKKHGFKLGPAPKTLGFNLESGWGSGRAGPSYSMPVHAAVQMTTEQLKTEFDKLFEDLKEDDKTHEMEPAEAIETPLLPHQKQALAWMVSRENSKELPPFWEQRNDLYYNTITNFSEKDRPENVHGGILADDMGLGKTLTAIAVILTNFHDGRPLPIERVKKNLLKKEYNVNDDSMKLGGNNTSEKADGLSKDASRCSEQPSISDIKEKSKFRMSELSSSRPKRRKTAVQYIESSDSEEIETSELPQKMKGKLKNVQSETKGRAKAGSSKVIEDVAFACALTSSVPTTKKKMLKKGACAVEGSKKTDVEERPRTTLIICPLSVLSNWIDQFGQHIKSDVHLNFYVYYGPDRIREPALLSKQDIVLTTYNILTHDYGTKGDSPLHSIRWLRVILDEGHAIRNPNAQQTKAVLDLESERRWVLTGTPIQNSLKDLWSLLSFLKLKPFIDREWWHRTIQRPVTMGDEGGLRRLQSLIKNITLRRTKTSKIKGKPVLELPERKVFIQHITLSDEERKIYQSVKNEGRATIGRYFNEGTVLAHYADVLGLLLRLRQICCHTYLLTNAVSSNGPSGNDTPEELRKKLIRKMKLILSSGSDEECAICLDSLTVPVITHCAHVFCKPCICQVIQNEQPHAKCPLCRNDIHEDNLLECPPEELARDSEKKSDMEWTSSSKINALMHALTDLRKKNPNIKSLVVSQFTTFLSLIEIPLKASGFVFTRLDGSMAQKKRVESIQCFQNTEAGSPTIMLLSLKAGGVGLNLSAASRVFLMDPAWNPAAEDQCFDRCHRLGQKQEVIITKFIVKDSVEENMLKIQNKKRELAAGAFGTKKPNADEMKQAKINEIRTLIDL

KDM2B (Homo sapiens) = target: T7, KDM2B (Homo sapiens) (UniProt Q8NHM5); conditions: 150 mM NaCl, 50 mM Tris pH 8.0, 0.25% NP-40, 1 mM DTT; 4 C, 2 h; 100 ug nuclear extract; double strand, one strand shown
T7 sequence: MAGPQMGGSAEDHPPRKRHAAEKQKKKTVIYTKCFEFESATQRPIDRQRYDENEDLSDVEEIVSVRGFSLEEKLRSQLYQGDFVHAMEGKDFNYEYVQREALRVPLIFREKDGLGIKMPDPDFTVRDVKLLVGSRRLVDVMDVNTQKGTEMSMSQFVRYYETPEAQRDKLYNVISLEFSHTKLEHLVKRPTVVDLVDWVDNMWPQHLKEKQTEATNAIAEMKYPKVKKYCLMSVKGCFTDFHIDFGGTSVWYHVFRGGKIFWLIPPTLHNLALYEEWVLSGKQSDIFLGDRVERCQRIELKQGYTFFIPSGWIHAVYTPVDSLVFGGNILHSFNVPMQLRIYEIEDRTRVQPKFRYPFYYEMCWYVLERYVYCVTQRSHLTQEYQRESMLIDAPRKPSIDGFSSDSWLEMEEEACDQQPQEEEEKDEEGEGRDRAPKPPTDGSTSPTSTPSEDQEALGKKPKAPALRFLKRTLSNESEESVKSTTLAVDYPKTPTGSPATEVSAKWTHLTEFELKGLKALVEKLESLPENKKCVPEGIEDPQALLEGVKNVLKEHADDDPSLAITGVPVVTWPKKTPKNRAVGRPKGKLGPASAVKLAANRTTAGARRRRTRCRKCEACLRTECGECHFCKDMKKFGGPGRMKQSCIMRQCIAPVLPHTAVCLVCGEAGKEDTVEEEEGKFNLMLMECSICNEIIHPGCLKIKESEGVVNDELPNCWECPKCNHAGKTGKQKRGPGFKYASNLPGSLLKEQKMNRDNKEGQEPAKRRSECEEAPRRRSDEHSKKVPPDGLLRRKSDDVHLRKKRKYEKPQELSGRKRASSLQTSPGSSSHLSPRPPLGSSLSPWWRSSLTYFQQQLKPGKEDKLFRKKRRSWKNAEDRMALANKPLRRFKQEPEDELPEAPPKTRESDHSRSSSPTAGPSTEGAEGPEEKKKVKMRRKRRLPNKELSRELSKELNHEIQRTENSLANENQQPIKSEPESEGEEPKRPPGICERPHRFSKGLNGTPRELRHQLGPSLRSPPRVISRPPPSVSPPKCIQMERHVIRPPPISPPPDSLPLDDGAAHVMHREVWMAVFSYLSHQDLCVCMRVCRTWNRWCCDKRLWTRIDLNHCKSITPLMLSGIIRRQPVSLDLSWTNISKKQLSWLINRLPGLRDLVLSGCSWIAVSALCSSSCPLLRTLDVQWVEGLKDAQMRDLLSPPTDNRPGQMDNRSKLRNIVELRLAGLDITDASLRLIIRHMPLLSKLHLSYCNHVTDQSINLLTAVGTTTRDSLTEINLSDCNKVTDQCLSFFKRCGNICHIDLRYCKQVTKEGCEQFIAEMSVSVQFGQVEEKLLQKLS

[1] = 5mC at 15,17 (strand 1), 5mC at 14,16 (strand 2)

“GCCGCCGCCCTTCTCGCGAGACTGCCGGGCC [CGCG bait]” gave a half-maximal binding (ALYREF (Homo sapiens)) of 317 nM, a half-maximal binding (APTX (Homo sapiens)) of 165 nM and a half-maximal binding (BANF1 (Homo sapiens)) of 223 nM. The half-maximal binding (BCORL1 (Homo sapiens)) was 229 nM, the half-maximal binding (CETN2 (Homo sapiens)) was 129 nM and the half-maximal binding (CXXC5 (Homo sapiens)) was 200 nM. It also gave a half-maximal binding (DDB1 (Homo sapiens)) of 338 nM, a half-maximal binding (DDB2 (Homo sapiens)) of 320 nM and a half-maximal binding (FBXL12 (Homo sapiens)) of 417 nM. The half-maximal binding (HLTF (Homo sapiens)) was 341 nM and the half-maximal binding (KDM2B (Homo sapiens)) was 151 nM.

GAGAGCCCCGCCCCCTGGCT [SP/KLF bait] was tested, and the half-maximal binding (BANF1 (Homo sapiens)) was 245 nM and the half-maximal binding (DDB1 (Homo sapiens)) was 101 nM.

With “GCCGCCGCCCTTCTCGCGAGACTGCCGGGCC [methylated CGCG bait]” the half-maximal binding (APTX (Homo sapiens); [1]) was 113 nM, the half-maximal binding (BANF1 (Homo sapiens); [1]) was 191 nM and the half-maximal binding (DDB1 (Homo sapiens); [1]) was 198 nM. For the same sequence, the half-maximal binding (DDB2 (Homo sapiens); [1]) was 185 nM.
